Measured values as given in PubChem BioAssay AID662 (National Center for Advancing Translational Sciences (NCATS), 2007).
Out of some 71,000 compounds screened, about 1,800 (2.5%) were called active. This list was built around the results that the source calls inconclusive (neither active nor inactive); the mix of calls is not that of the screen. Calls come from the whole dose curve; as a rule, active = well fitted activation curve with a large enough effect in the signal ratio, with a control signal flat (not every such curve was filed as active); inconclusive = small, poorly fitted or top-dose-only effect, or effect the other way, or a change in a side signal; inactive = flat fitted curve, though single readings scatter; the % refers to the signal ratio. Potencies beside an inconclusive call are fits to weak or partial responses and may not hold up.

Test: Cell signaling CRE-BLA (Fsk stim); for activity change, negative = inhibition: % of control where 0% means no effect
Details: CHO CRE-bla reporter (cAMP response element driving beta-lactamase), forskolin EC10, beta-lactamase ratio
Procedure, shortened: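 qHTS titration format; CRE-bla CHO reporter; stimulus EC10 NKH 477, a water-soluble forskolin. Read: CCF4 460/530 nm ratio. Potency expressed as AC50 for activators or inhibitors.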

[1] = activity change, negative = inhibition: at 38.2 µM (top of the series) unless noted
Potency is the fitted concentration of half-maximal effect; tags give direction and shape of the fitted curve.

Q: Which Potency [1] does the source give for `COc1ccc(C(=O)N/N=C2/C(=O)c3c(C)cc(C)cc3CC2(C)C)cc1` here?
A: The Potency was inconclusive: 0.1 µM [rising, single point].

Q: Which Potency [1] does the source give for `Cc1ccc(-n2ncc3c(=O)[nH]c(SC(C)C)nc32)cc1` here?
A: The Potency was active: 2 µM.

Q: With `O=c1c(-c2ccccc2)nc2cncnc2n1Cc1ccc(F)cc1` as the compound, how does the Potency [1] read?
A: The Potency was inconclusive: 10 µM [rising, partial curve].

Q: Which activity change, negative = inhibition [1] does the source give for `C=CCn1c(SCC(=O)Nc2ccccc2CC)nnc1-c1ccncc1` here?
A: The activity change, negative = inhibition was “inactive”.

Q: For `CC1CN(C(=O)c2cccc(C(=O)N3CC(C)OC(C)C3)c2)CC(C)O1` (stereo not drawn), which Potency [1] is on record?
A: Its Potency is inconclusive: 0.631 µM [falling, full curve, poor fit].

Q: For `S=C1NC=NC2N=CNC12` (stereo not drawn), which activity change, negative = inhibition [1] is on record?
A: The activity change, negative = inhibition was “inactive”.

Q: For `N#Cc1c2n(c3c(=O)n(Cc4ccc(Cl)cc4)cnc13)CCCCC2`, which Potency [1] is on record?
A: The Potency was active: 3.16 µM.

Q: Which activity change, negative = inhibition [1] does the source give for `N#CC1=C(N)N=C(SCc2ccccc2)C(C(N)=O)C12CCCCC2` (stereo not drawn) here?
A: The activity change, negative = inhibition was inconclusive: -13.3%.

Q: For `COc1ccccc1OCc1nc(C#N)c(NCc2ccco2)o1`, which activity change, negative = inhibition [1] is on record?
A: The activity change, negative = inhibition was “inactive”.

Q: With `O=C(OC1CCOC1=O)c1ccc(-c2nc3ccccc3s2)s1` (stereo not drawn) as the compound, how does the activity change, negative = inhibition [1] read?
A: Its activity change, negative = inhibition is inconclusive: 5.03%.

Q: Which activity change, negative = inhibition [1] does the source give for `CN(Cc1ccccc1)c1nc2c(c(=O)[nH]c(=O)n2C)n1CCSc1nc2ccccc2[nH]1` here?
A: The activity change, negative = inhibition was inconclusive: 11.9%.

Q: With `COCCCn1c(-c2ccco2)nc2ccccc2c1=O` as the compound, how does the Potency [1] read?
A: The Potency was inconclusive: 12.6 µM [rising, partial curve].

Q: Which activity change, negative = inhibition [1] does the source give for `COc1ccc(C2C(C#N)=C(/N=C/N3CCN(C)CC3)OC3=C2C(=O)CC(C)(C)C3)cc1` (stereo not drawn) here?
A: Its activity change, negative = inhibition is “inactive”.

Q: For `O=C(OCC#CCSc1nnc(-c2ccncc2)o1)c1cccs1`, which activity change, negative = inhibition [1] is on record?
A: Its activity change, negative = inhibition is inconclusive: -11.5%.

Q: For `COC(=O)N1CCC2(CC1)CN(C(=O)Nc1ccccc1)C2`, which activity change, negative = inhibition [1] is on record?
A: The activity change, negative = inhibition was “inactive”.

Q: With `CCN(CC)S(=O)(=O)c1ccc2c(c1)nc(CCC(=O)OCC(=O)N1CCc3ccccc31)n2C` as the compound, how does the activity change, negative = inhibition [1] read?
A: Its activity change, negative = inhibition is inconclusive: -19.4%.

Q: For `CN(C)C(CNc1nnnn1-c1ccccc1)c1ccco1` (stereo not drawn), which activity change, negative = inhibition [1] is on record?
A: The activity change, negative = inhibition was “inactive”.

Q: Which Potency [1] does the source give for `O=C(Nc1ccc(S(=O)(=O)Nc2cnc3ccccc3n2)cc1)c1ccc(Br)o1` here?
A: Its Potency is active: 3.98 µM.

Q: With `COc1ccccc1C(=O)N(Cc1nc(-c2ccc(Cl)cc2)no1)C(C)C` as the compound, how does the activity change, negative = inhibition [1] read?
A: The activity change, negative = inhibition was inconclusive: -26.7%.

Q: With `Cc1cc(C)n2nc(SCC3COc4ccccc4O3)nc2n1` (stereo not drawn) as the compound, how does the Potency [1] read?
A: The Potency was inconclusive: 10 µM [rising, partial curve].

Q: With `Cc1nn(CC(=O)N(C)C)c(=O)c2ccccc12` as the compound, how does the activity change, negative = inhibition [1] read?
A: The activity change, negative = inhibition was “inactive”.

Q: With `COc1ccc(-c2cc(C(F)(F)F)n3ncc(C(=O)NCc4ccco4)c3n2)cc1` as the compound, how does the activity change, negative = inhibition [1] read?
A: Its activity change, negative = inhibition is inconclusive: 26.7%.

Q: For `Cc1ccc(N)cc1[N+](=O)[O-]`, which activity change, negative = inhibition [1] is on record?
A: Its activity change, negative = inhibition is “inactive”.

Q: Which activity change, negative = inhibition [1] does the source give for `O=C1CN(Cc2ccccc2)C(=NCc2ccco2)S1` here?
A: The activity change, negative = inhibition was “inactive”.

Q: For `COc1ccc(CCNC(=O)CCC(=O)N2CCN(S(=O)(=O)c3ccccc3)CC2)cc1OC`, which activity change, negative = inhibition [1] is on record?
A: Its activity change, negative = inhibition is “inactive”.

Q: For `COc1ccc(-c2oc3ncn(CCN4CCOCC4)c(=N)c3c2-c2ccc(OC)cc2)cc1`, which Potency [1] is on record?
A: The Potency was active: 0.251 µM.

Q: With `O=c1cc(-c2ccc(O)c(O)c2)oc2cc(O)cc(O)c12` as the compound, how does the activity change, negative = inhibition (at 17.1 µM (top of the series)) read?
A: The activity change, negative = inhibition was inconclusive: -25.2%.

Q: What about the activity change, negative = inhibition (at 38.2 µM (top of the series)) of the same compound?
A: The activity change, negative = inhibition was inconclusive: -0.29%.

Q: With `Cc1ccc(-c2nc(C#N)c(NCc3ccco3)o2)cc1` as the compound, how does the activity change, negative = inhibition [1] read?
A: Its activity change, negative = inhibition is inconclusive: 15.5%.

Q: With `CCCCS(=O)(=O)/C=C\C=C/S(=O)(=O)CCCC` as the compound, how does the Potency [1] read?
A: Its Potency is inconclusive: 0.0398 µM [falling, full curve, poor fit].

Q: With `CC(=O)N1C(C(=O)O)CSC1c1ccc(C)cc1` (stereo not drawn) as the compound, how does the activity change, negative = inhibition [1] read?
A: The activity change, negative = inhibition was “inactive”.

Q: For `CN(C)c1ccc(-c2cc(NCc3ccccc3)ncn2)cc1`, which activity change, negative = inhibition [1] is on record?
A: The activity change, negative = inhibition was inconclusive: 27.3%.

Q: With `COc1ccc(-n2nc(C(=O)NCC(=O)NCC3CCCO3)c3ccccc3c2=O)cc1` (stereo not drawn) as the compound, how does the activity change, negative = inhibition [1] read?
A: The activity change, negative = inhibition was inconclusive: 17.3%.

Q: With `Cc1ccccc1S(=O)(=O)NC1OC(=O)C(Cl)=C1Cl` (stereo not drawn) as the compound, how does the activity change, negative = inhibition [1] read?
A: The activity change, negative = inhibition was inconclusive: -7.97%.

Q: With `O=C(CCCCn1c(=O)[nH]c2ccccc2c1=O)NCCC1=CCCCC1` as the compound, how does the Potency [1] read?
A: Its Potency is inconclusive: 0.0794 µM [falling, full curve, poor fit].

Q: For `Cc1cccc2cc(C#N)c(NCCCn3ccnc3)nc12`, which Potency [1] is on record?
A: The Potency was inconclusive: 12.6 µM [rising, single point].

Q: With `CN1CCN(C(=O)CN(Cc2ccc(Cl)cc2)S(C)(=O)=O)CC1` as the compound, how does the activity change, negative = inhibition [1] read?
A: The activity change, negative = inhibition was inconclusive: 6.34%.

Q: For `O=C1CCC(C(=O)Nc2cccc3ccccc23)N1` (stereo not drawn), which activity change, negative = inhibition [1] is on record?
A: Its activity change, negative = inhibition is “inactive”.

Q: Which Potency [1] does the source give for `O=C(CSc1nc2c(cnn2-c2ccccc2)c(=O)[nH]1)N1CCOCC1` here?
A: The Potency was inconclusive: 10 µM [rising, partial curve, poor fit].

Q: Which activity change, negative = inhibition [1] does the source give for `CCCCOC(=O)C1=C(C)Nc2ncnn2C1c1ccc(OCC)c(OC)c1` (stereo not drawn) here?
A: Its activity change, negative = inhibition is inconclusive: 23.3%.

Q: With `CCC(C)(C)n1nnnc1C(c1ccc2ncccc2c1)N1CCN2CCCC2C1` (stereo not drawn) as the compound, how does the Potency [1] read?
A: The Potency was inconclusive: 0.631 µM [falling, full curve].

Q: For `COc1cc(S(=O)(=O)n2nnc3ccccc32)c(OC)cc1Cl`, which activity change, negative = inhibition [1] is on record?
A: The activity change, negative = inhibition was inconclusive: 7.01%.

Q: Which activity change, negative = inhibition [1] does the source give for `Clc1cccc(CSc2nnc([C@@H]3CCCN3)o2)c1` here?
A: The activity change, negative = inhibition was inconclusive: 10.3%.

Q: With `Cc1ccc(C(C)C)cc1C(=O)CC1(O)C(=O)N(C)c2ccccc21` (stereo not drawn) as the compound, how does the activity change, negative = inhibition [1] read?
A: Its activity change, negative = inhibition is “inactive”.

Q: With `COc1cccc(-n2nnc3c(=O)n(Cc4c(F)cccc4Cl)cnc32)c1` as the compound, how does the Potency [1] read?
A: Its Potency is inconclusive: 5.01 µM [rising, partial curve].

Q: With `O=C1C2CCCN2C(c2ccc(Cl)cc2)N1c1nccs1` (stereo not drawn) as the compound, how does the activity change, negative = inhibition [1] read?
A: The activity change, negative = inhibition was inconclusive: -19.2%.

Q: What does the source list for `NCCCCNCCCN`?
A: activity change, negative = inhibition [1]: inconclusive: -10.2%; activity change, negative = inhibition (at 38.2 µM (top of the series)): inactive: -18.3%

Q: Which activity change, negative = inhibition [1] does the source give for `CC(=O)Nc1sc(C)c(C)c1C(=O)OC1CCOC1=O` (stereo not drawn) here?
A: The activity change, negative = inhibition was inconclusive: 18.3%.

Q: With `CC(C)c1ccccc1N1CC(C(=O)O)CC1=O` (stereo not drawn) as the compound, how does the activity change, negative = inhibition [1] read?
A: The activity change, negative = inhibition was inconclusive: -8.95%.

Q: Which activity change, negative = inhibition [1] does the source give for `CC(C)(C(=O)c1cccnc1)c1cccnc1` here?
A: The activity change, negative = inhibition was “inactive”.

Q: With `O=C(CCc1ccccc1)Nc1c(F)c(F)c(F)c(F)c1F` as the compound, how does the activity change, negative = inhibition [1] read?
A: The activity change, negative = inhibition was “inactive”.

Q: With `Cc1ccccc1-c1ccc2ncnc(N3CCOCC3)c2c1` as the compound, how does the Potency [1] read?
A: The Potency was inconclusive: 20 µM [falling, single point].

Q: With `Cc1ccc2c(c1)N(CCCC(=O)NCc1ccc3c(c1)OCO3)C(=O)CO2` as the compound, how does the activity change, negative = inhibition [1] read?
A: Its activity change, negative = inhibition is “inactive”.

Q: With `O=C(c1cn(-c2ccccc2)nc1-c1ccc(F)cc1)N1CCOCC1` as the compound, how does the activity change, negative = inhibition [1] read?
A: Its activity change, negative = inhibition is “inactive”.

Q: For `O=S(=O)(c1ccccc1)N(Cc1nc(-c2ccccc2)no1)C1CCCCC1`, which activity change, negative = inhibition [1] is on record?
A: Its activity change, negative = inhibition is “inactive”.

Q: For `Cc1cc(Cl)cc2c1NC(=O)[C@]21[C@@H]2C(=O)N(Cc3ccccc3)C(=O)[C@@H]2[C@@H]2CCCN21`, which activity change, negative = inhibition [1] is on record?
A: The activity change, negative = inhibition was “inactive”.

Q: Which Potency [1] does the source give for `CCC1SC(=NC(=O)c2ccc(Cl)c(Cl)c2)NC1=O` (stereo not drawn) here?
A: Its Potency is inconclusive: 3.16 µM [rising, single point].
